In publication PMC3252639 (The Biochemical journal, 2011):

Target: the molecule itself
Assay: co-sedimentation

B1: wild-type connexin 43 (natural protein)
chain: not shown
Q: With B1 as the protein, how does the “stoichiometry N” value read?
A: Its value is 6.
